Numbering of substitutions follows the chain as printed. Results are given in words; binding and its absence hold for the method and conditions named. Binding seen in cells or lysates may run through a third protein. Some entries that bind do so weakly or less than the wild type. Tags and fused reporters may be left off the sequences shown.
Experiments:
Test in all cases: co-IP; HEK293T transfected with Myc-PCDH19-FLAG (isoforms, variants or fragments) and β-catenin-V5, with or without CDH2-HA; anti-FLAG agarose beads 1 hour at 4 °C; Wash Buffer; western blot with anti-Myc, anti-HA and anti-V5
[1] = target: T1, Myc-PCDH19-FLAG p.N340S (+Ex2) (human) (UniProt Q8TAB3)
T1 sequence: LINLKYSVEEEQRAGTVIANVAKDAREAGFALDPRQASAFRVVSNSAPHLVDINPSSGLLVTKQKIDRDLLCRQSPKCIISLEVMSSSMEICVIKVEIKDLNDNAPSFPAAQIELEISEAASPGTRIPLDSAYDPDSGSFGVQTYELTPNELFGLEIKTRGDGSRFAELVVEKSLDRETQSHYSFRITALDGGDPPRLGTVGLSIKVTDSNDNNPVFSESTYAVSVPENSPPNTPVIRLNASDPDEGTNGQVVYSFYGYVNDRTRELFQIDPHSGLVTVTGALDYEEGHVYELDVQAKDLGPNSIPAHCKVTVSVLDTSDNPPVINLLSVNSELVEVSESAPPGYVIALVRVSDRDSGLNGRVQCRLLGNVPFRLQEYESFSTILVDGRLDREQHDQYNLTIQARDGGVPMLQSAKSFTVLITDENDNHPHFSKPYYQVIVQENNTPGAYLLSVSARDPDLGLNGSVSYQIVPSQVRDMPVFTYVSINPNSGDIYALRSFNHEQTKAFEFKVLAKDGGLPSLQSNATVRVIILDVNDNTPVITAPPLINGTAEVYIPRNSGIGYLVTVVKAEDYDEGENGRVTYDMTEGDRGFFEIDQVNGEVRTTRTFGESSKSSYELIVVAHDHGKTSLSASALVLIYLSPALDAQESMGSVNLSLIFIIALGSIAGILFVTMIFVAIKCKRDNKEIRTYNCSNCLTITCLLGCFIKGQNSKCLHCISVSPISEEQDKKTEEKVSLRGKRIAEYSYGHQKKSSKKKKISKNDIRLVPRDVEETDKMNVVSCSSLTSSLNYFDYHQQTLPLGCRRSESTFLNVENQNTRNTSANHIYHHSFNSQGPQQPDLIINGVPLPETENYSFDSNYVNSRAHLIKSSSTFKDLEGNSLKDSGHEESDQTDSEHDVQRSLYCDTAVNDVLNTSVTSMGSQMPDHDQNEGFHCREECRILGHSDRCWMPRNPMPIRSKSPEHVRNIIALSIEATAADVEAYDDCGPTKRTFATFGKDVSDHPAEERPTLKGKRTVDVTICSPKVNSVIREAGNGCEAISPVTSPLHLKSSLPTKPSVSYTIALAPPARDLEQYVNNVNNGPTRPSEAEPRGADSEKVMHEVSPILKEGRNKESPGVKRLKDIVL

Protein sequences, listed by entry. Tags and fused reporters are not part of them.
UniProt P35222: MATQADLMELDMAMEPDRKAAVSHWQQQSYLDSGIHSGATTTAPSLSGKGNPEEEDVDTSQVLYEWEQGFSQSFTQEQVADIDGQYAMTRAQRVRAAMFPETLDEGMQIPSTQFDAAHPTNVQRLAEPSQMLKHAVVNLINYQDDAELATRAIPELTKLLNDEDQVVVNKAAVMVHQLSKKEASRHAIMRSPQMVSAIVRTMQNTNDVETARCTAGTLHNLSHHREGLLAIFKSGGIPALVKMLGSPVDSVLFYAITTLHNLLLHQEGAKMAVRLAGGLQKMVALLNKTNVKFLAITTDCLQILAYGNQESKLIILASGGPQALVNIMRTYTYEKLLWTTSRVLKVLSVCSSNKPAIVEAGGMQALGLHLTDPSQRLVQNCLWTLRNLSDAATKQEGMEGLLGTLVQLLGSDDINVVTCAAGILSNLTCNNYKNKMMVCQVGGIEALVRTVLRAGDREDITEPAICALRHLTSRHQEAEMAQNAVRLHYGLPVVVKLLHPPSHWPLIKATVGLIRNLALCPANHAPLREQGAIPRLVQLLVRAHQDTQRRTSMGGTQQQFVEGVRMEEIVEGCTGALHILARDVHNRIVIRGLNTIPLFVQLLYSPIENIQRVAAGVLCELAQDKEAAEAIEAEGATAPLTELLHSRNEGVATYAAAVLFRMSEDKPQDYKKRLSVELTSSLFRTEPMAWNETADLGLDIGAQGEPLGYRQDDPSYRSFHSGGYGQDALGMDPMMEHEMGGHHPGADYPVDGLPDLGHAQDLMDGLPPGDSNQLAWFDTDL

[2] = target: T2, Myc-PCDH19-FLAG p.V441E (+Ex2) (human) (UniProt Q8TAB3)
T2 sequence: T1 sequence with S319N, V420E

[3] = target: T3, PCDH19 cytoplasmic domain (CD) fragment, epitope-tagged (human) (UniProt Q8TAB3)
T3 sequence: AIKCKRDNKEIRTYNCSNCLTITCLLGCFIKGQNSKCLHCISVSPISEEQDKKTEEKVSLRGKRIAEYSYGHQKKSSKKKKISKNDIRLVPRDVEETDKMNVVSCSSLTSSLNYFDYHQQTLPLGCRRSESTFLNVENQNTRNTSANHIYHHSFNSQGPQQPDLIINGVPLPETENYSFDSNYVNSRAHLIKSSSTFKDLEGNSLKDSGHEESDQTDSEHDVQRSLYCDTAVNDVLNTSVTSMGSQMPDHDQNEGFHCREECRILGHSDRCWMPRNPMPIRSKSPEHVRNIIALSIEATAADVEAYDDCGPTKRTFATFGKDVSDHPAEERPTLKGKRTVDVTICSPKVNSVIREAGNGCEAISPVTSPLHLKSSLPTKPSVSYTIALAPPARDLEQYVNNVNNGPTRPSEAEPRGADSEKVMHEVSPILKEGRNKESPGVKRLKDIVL

binding [1]: binds | binding [2]: binds | binding [3]: binds
Substance: β-catenin-V5 (from UniProt P35222 1-781)

— publication PMC11408250
